# Reference: PubChem BioAssay AID1347073 (National Center for Advancing Translational Sciences (NCATS), 2019)
# In all, about 45,000 compounds went through this assay and about 200 (0.44%) were called active. About 7% were inconclusive and are not listed. Calls come from the whole dose curve; as a rule, active = well fitted activation curve with a large enough effect; inconclusive = small, poorly fitted or top-dose-only effect; inactive = no such curve, though single readings can be large or run the other way. The list shows a part of the results.
# Assay: qHTS of TDP-43 Inhibitors: NCGC Sytravon Library Screen; note: 0% is about no effect; nearly all actives have a fitted effect of over 55% in size
# Conditions: yeast TDP-43 toxicity rescue, BacTiter-Glo growth, 24 h; series mostly up to 46.1 µM; growth rescue (activation): at the top concentration
# In short: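 TDP-43-expressing yeast, pregrown in raffinose, seeded at OD600 0.02 in galactose medium with compound for 24 hr at 30 deg C. Growth read by BacTiter-Glo luminescence, so rescue of toxicity appears as activation.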
row,SMILES,growth rescue (activation)
1,S=C(Nc1ccccc1)N1CCn2c(nc3ccccc32)C1,inactive: 2.88%
2,NC(=O)[C@@H]1CCCN1C(=O)c1cc(COc2ccc3c(c2)CCCC3)on1,inactive: 16.4%
3,CCOC(=O)COc1ccccc1/C=N/O,inactive: -0.038%
4,O=C(/C=C/c1ccccc1Cl)NNC(=O)c1cccs1,inactive: -17.5%
5,Cc1ccc(N2CC(C(=O)Nc3ccc4c(c3)OCCO4)CC2=O)cc1C (configuration not stated),inactive: 10.4%
6,O=C(O)/C=C/C(=O)OC1CC2CCC1C2 (configuration not stated),inactive: 20.4%
7,COc1cc(NC(=O)CN2CCN(c3ccccc3O)CC2)c(C)cc1[N+](=O)[O-],inactive: 3.04%
8,Cc1nn(-c2ccccc2)c2c1cc1c(=O)n(C)c(=O)nc-1n2-c1ccccc1F,inactive: 5.36%
9,COc1cccc(CNC(=O)CSc2nnc3c(n2)[nH]c2ccc(C)cc23)c1,inactive: 14.7%
10,CCOc1ccccc1NC(=O)CCS(=O)(=O)c1cccs1,inactive: 8.89%
11,Cc1cc(C(=O)NCc2cccc(Cl)c2)c2ccccc2n1,inactive: 25.5%
12,O=C(COC(=O)c1ccccc1Br)Nc1ccccc1F,inactive: 10.9%
13,CSc1nsc(SCC(=O)Nc2ccccc2)n1,inactive: -4.34%
14,CC(C)(C)SCCNC(=O)Nc1ccccc1,inactive: 20.7%
15,CC(C)CN1C(=O)/C(=C(/C#N)C(=O)NC2CCCCC2)c2ccccc21,inactive: 7.5%
16,O=c1c2ccccc2ncn1/N=C/c1ccccc1,inactive: -15.9%
17,COc1ccc(/C=N/NC(=O)c2ccc(N(C)S(=O)(=O)c3ccccc3)cc2)cc1OC,inactive: -12.1%
18,NS(=O)(=O)c1ccc(N/N=C/C=C/c2ccccc2[N+](=O)[O-])cc1,inactive: 7.71%
19,NC1=NC(=O)CC(C(=O)NCCc2ccccc2)S1 (configuration not stated),inactive: -7.09%
20,CC1(C(=O)O)CCCN1C(=O)c1cccc(F)c1 (configuration not stated),inactive: 13.3%
21,NC(=O)c1nc(-c2ccc(F)c(F)c2)nc2c1[nH]c(=O)n2-c1cccc(Cl)c1,inactive: 6.16%
22,O=C(CN1CCCCC1)NNc1nc(-c2ccccc2)c2cc(Br)ccc2n1,inactive: -4.54%
23,N#C/C(=C/c1ccc(-c2ccccc2[N+](=O)[O-])o1)C(=O)NCCN1CCCCC1,inactive: -0.177%
24,CN(C)S(=O)(=O)c1cccc(C(=O)NC2CCCc3ccccc32)c1 (configuration not stated),inactive: 21.9%
25,COc1cc(/C=C2\SC(=S)N(CCC(=O)Nc3ccc(O)cc3)C2=O)cc(OC)c1OC,inactive: -9.1%
26,O=c1c([N+](=O)[O-])c(N2CCCC2)c2ccccc2n1-c1ccccc1,inactive: 3.59%

row,SMILES,growth rescue (activation)
1,Cc1cc(Nc2ccccc2)nc(NCc2ccccc2)n1,inactive: 7.44%
2,Cc1[nH]nc2c1C(c1ccc(OC(=O)c3ccco3)cc1)C(C#N)=C(N)O2 (configuration not stated),inactive: 5.63%
3,COc1ccc(-n2nc(C(=O)NCC(=O)N3CCCC3)c3ccccc3c2=O)cc1Cl,inactive: -4.47%
4,CCN1C(=O)CCCc2ccccc21,inactive: 15.8%
5,CC(=O)c1cccc(NC(=O)N2CCC(NC(=O)c3ccco3)CC2)c1,inactive: -18.3%
6,CCOC(=O)c1c(C)[nH]c(C(=O)COC(=O)[C@H](C)N2C(=O)C3CCCCC3C2=O)c1C (some centres not stated),inactive: 3.73%
7,Cn1c(=NC(=O)c2ccc(S(=O)(=O)N3CCCc4ccccc43)cc2)sc2cc(F)ccc21,inactive: -5.39%
8,CCOC(=O)c1ccc[n+](CC(=O)Nc2cc(C(F)(F)F)ccc2Cl)c1,inactive: 7.92%
9,N/C(=N\OC(=O)COc1ccc(Br)cc1Cl)c1ccccn1,inactive: 1.86%
10,Cc1cc(C)n2nc(C(=O)N/N=C/c3ccc(O)cc3)nc2n1,inactive: 1.06%
11,COCCOC(=O)C1=C(C)N(c2ccccc2)C(=O)NC1c1cccc([N+](=O)[O-])c1 (configuration not stated),inactive: 17.4%
12,CC(C(=O)Nc1ccc(C#N)cc1)N(C)Cc1cccs1 (configuration not stated),inactive: 7.46%
13,CCOC(=O)Cc1csc(NC(=O)C(NC(=O)C2CCCCC2)C(C)C)n1 (configuration not stated),inactive: -1.27%
14,Cc1ccccc1C(=O)NC1CCN(CC(=O)NCc2ccccc2)CC1,inactive: -15.5%
15,O=C(NNC(=O)C1COc2ccccc2O1)c1cccc([N+](=O)[O-])c1 (configuration not stated),inactive: -3.4%
16,Cc1ccc(S(=O)(=O)CCC(=O)N(C)C2CCCCC2)cc1,inactive: 11%
17,CCOc1ccc(NC(=O)CSc2nnc(C3CC3)n2C)cc1,inactive: -3.61%
18,O=C(COc1ccc2ccc(=O)oc2c1)NC1CCS(=O)(=O)C1 (configuration not stated),inactive: -5.45%
19,Cc1ccccc1C(=O)Nc1sc2c(c1C(=O)NCc1ccco1)CCC(C(C)(C)C)C2 (configuration not stated),inactive: 14.4%
20,Cc1ccc2nc3c(cc(C(=O)NCc4ccco4)c(=N)n3Cc3ccco3)c(=O)n2c1,inactive: 0.758%
21,CC1CCCN(C(=O)Nc2cccc(NC(=O)N3CCCC(C)C3C)c2)C1C (configuration not stated),inactive: 13.3%
22,CC(=O)N1CCN(S(=O)(=O)c2cccc(C(=O)NCc3ccc(F)cc3)c2)CC1,inactive: 12.6%
23,CN(CCC#N)C(=O)COC(=O)c1ccccc1OCc1ccccc1Cl,inactive: 18.4%
24,C=CCOc1ccc(C2/C(=C(/O)c3ccc(OC)cc3)C(=O)C(=O)N2CCN2CCNCC2)cc1 (configuration not stated),inactive: 10.9%
25,CCOC(=O)c1cc(CC)sc1/N=C/C1C(=O)CCCC1=O,inactive: 35.7%
26,Cc1c(NS(=O)(=O)c2cccc(C(=O)N3CCCC3)c2)c(=O)n(-c2ccccc2)n1C,inactive: 33.4%
